# Experimental data reported in article PMC4336329 (PLoS ONE, 2015).
# In all, about 310,000 compounds went through this assay and about 2,200 (0.71%) showed an effect of 50% or more. Effects have a minus sign here. The list shows a part of the results.
# Target: human ether-à-go-go-related gene (hERG) potassium channel (human, UniProt Q12809)
# Assay: primary screen, population patch clamp on CHO cells stably expressing hERG
# Sequence of human ether-à-go-go-related gene (hERG) potassium channel (Q12809 whole entry, looked up): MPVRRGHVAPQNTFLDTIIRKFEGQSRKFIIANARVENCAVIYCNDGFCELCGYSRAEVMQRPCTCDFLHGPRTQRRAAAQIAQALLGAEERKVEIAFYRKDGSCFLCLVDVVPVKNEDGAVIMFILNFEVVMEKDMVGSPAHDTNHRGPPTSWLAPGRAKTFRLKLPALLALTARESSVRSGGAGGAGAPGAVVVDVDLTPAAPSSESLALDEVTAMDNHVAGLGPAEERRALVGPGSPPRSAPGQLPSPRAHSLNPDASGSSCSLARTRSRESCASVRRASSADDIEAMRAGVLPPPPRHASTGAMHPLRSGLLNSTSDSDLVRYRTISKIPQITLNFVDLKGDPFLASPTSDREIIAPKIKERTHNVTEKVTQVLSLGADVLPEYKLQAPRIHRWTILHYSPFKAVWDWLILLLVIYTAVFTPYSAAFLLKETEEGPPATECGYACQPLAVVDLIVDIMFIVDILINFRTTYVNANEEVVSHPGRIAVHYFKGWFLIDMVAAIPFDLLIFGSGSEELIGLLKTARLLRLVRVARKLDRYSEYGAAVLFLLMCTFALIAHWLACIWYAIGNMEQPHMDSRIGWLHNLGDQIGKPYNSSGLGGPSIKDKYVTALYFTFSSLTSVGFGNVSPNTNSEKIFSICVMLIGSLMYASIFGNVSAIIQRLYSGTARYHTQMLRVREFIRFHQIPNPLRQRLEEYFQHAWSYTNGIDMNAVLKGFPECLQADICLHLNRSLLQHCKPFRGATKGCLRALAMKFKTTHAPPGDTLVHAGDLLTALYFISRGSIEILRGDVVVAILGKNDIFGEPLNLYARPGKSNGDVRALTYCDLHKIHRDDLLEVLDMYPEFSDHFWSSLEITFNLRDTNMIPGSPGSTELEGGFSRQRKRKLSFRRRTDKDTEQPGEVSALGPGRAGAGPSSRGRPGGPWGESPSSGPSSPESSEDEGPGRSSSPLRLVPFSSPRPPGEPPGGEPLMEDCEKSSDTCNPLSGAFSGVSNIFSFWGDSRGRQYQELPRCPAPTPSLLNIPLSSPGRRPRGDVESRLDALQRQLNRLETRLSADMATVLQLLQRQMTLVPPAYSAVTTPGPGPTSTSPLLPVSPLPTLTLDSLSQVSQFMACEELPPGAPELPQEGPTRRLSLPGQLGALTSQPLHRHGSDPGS
row,SMILES,"hERG current change (%, negative = inhibition) at 1uM [%]"
1,CCOC(=O)c1c(C)n(C)c2ccc(OC)c(NC(=O)CN3CCSCC3)c12,12.8
2,CCn1c(C(C)NC(=O)c2ccc(OC)c(OC)c2)nc2ccccc21 (centres unmarked),-10.2
3,COc1ccc(CNC(=O)CSc2nc(C)cs2)cc1,8.12
4,Cc1cc(C)cc(NC(=S)NC2CC3CCCC(C2)N3Cc2cccs2)c1 (centres unmarked),-2.45
5,COc1cc(F)c(C2=CC(=O)C[C@H](c3ccc(Cl)cc3)C2)cc1F,14.3
6,OC1(C(F)(F)F)CC(O)(C(F)(F)F)n2nc(-c3ccccc3)cc2N1 (centres unmarked),11
7,CCc1ccc(OC)c(S(=O)(=O)Nc2ccc(Cc3ccncc3)cc2)c1,5.44
8,CCN1CCN(CC(O)COc2ccc3c(c2)CCC3)CC1.Cl (centres unmarked),8.4
9,COc1ccccc1-c1nnc(NC(=O)c2ccc(S(=O)(=O)N(C)CC3CCCO3)cc2)o1 (centres unmarked),5.69
10,CN(C(=O)c1ccc(Cl)nc1)C1(c2ccccc2Cl)CCCCC1=O (centres unmarked),5.36
11,CCNC(=O)c1ccc(N(C)S(=O)(=O)c2cccs2)cc1,13.7
12,COc1ccc([C@H]2CC(=O)C=C(c3cccc(OC)c3)C2)cc1,-17.5
13,CCOC(=O)C1=CC[C@@H](c2cc3ccc(OC)cc3n2C)N(S(=O)(=O)c2ccc(C)cc2)[C@H]1C(=O)OCC,7.66
14,C=CCNC(=O)CCC(=O)NNc1nc2ccccc2c2nc(-c3ccccc3)nn12,7.9
15,CCOC(=O)C1CCCN(C/C=C/c2ccccc2[N+](=O)[O-])C1 (centres unmarked),-42.6
16,O=C(COC(=O)c1cc2ccccc2cc1O)c1ccccc1,8.24
17,O=C(/C=C\Nc1ccccc1Br)c1ccc2c(c1)OCO2,13.7
18,O=C(/C=C/c1ccco1)N(Cc1ccc(F)cc1)C1CCS(=O)(=O)C1 (centres unmarked),-3.56
19,COc1ccccc1OCc1nnc(SCC(=O)N2CCCC2)o1,15.8
20,Cc1cccc(N2CCN(C(=O)c3cc4c(=O)[nH]c5ccccc5c4n3C)CC2)c1C,11.2
21,Cc1noc(C)c1C(=O)OCC(=O)NCc1ccc(Cl)cc1,8.49
22,Cc1csc(C(C)N(C)C(=O)CCc2nnc(CCc3ccccc3)o2)n1 (centres unmarked),-1.78
23,O=C(CN(CC1CCCO1)C(=O)CNS(=O)(=O)c1ccccc1)NCc1ccccc1 (centres unmarked),1.76

row,SMILES,"hERG current change (%, negative = inhibition) at 1uM [%]"
1,CS(=O)(=O)NN1C(=O)c2ccccc2NC1c1cc2ccccc2nc1Cl (centres unmarked),-8.61
2,COCCn1nnnc1C(c1cccc(OC)c1OC)N1CCN(C2CCCCC2)CC1.Cl (centres unmarked),5.77
3,COc1ccc(N=C(C)c2c(O)n(C3CCCCC3)c(=O)[nH]c2=O)c(OC)c1,10.5
4,COCCn1c(SCC(=O)Nc2ccc3c(c2)OCCO3)nnc1C(C)C,9.63
5,Cn1c(=O)c2c(ncn2CCOc2cccc(Br)c2)n(C)c1=O,-0.237
6,CCOC(=O)NC(=O)/C(C#N)=N\Nc1ccc(Cl)cc1,14.5
7,O=C(O)C1CC=CCC1C(=O)Nc1ccc2c(c1)CCC2 (centres unmarked),6.25
8,O=C(O)C1=C[C@H](c2ccccc2)C[C@H](OCc2ccc(CO)cc2)O1,13.1
9,COc1cc(S(=O)(=O)Nc2cccc(C)c2)ccc1NC(=O)c1ccncc1,22.6
10,COc1cc(OC)c(C2C(C(=O)Nc3ccc(C)cc3C)=C(C)Nc3ncnn32)cc1OC (centres unmarked),15.1
11,Cc1ccc(-c2nnn(CC(=O)N(c3ccc(F)cc3)C(C(=O)NC(C)(C)C)c3ccco3)n2)o1 (centres unmarked),7.02
12,COc1cc(CN2CCC(Cc3ccccc3)CC2)cc([N+](=O)[O-])c1O,8.72
13,COc1cc(/C=C(\C#N)c2nn(CCO)c(N)c2C#N)cc(OC)c1OC,20.2
14,Cc1cc(=S)n(-c2ccccc2)n1C,10.3
15,CSc1nc2ccc3nc(NC(=O)c4ccccc4)sc3c2s1,12.7
16,CN(C)Cc1ccccc1COc1ccccc1.O=C(O)/C=C\C(=O)O,4.28
17,CC(=O)NCc1ccc(C(=O)CCl)cc1,7.82
18,CC(=O)Oc1cccc(N2C(=O)C3CC=CCC3C2=O)c1 (centres unmarked),12
19,COCCN(C(=O)COC(=O)CC1CCCCC1)c1c(N)n(Cc2ccccc2)c(=O)[nH]c1=O,15.3
20,Cc1ccc(S(=O)(=O)NC2CCOC(C)(C)C2)cc1 (centres unmarked),8.48
21,COCCN(C(=O)c1snc(C(N)=O)c1N)C(C(=O)NC1CCCCC1)c1cc(OC)c(OC)c(OC)c1 (centres unmarked),15.4
22,CC(C)c1ccc(-c2cc(C(=O)N3N=C(C(F)F)CC3(O)C(F)F)c3ccccc3n2)cc1 (centres unmarked),12.3
23,O=C(NCc1ccc(F)cc1)NC(=O)c1ccc(Cl)cc1,8.99

row,SMILES,"hERG current change (%, negative = inhibition) at 1uM [%]"
1,CCC(C(=O)NCCCN1CCN(C)CC1)n1nc(C)c2sc3ccccc3c2c1=O (centres unmarked),4.63
2,CC1Sc2ccc(S(=O)(=O)CCC(=O)NCc3ccccc3)cc2NC1=O (centres unmarked),10.7
3,COc1ccc(CCNCC(=O)Nc2ccc(C)c(S(=O)(=O)N(C)C)c2)cc1OC,-3.32
4,CCCCOc1ccc(C(=O)N2CCN(CC(=O)Nc3ccc(C)cc3)CC2)cc1OC,-17.7
5,COc1ccc(NC(=O)Cc2nnc(SCC(=O)Nc3nccs3)n2C)cc1,10.8
6,COc1ccc(Nc2ncnc3sccc23)cc1,12
7,Cc1cc(C)c(C(=O)CN2C(=O)NC3(CCCCC3)C2=O)cc1C,9.5
8,Cc1ccc(NC2=NCC(=O)N2Cc2ccc3c(c2)OCO3)c(C)c1,9.18
9,Nc1nc(Nc2ccc(Cl)cc2Cl)nc(C(F)(F)F)n1,8.42
10,Cc1oc(-c2ccccc2F)nc1CN1CCC(C(=O)NCc2cccs2)CC1,-18.7
11,S=c1nc(SCc2ccccc2)[nH]c2ccccc12,7.46
12,O=C(NC1CCCCCC1)C1CCCN(S(=O)(=O)c2cnc[nH]2)C1 (centres unmarked),18.7
13,COc1cccc(CC2(CO)CCN(C(=O)NCCc3ccccc3)CC2)c1,17.8
14,Cc1c(C(=O)C(=O)NCc2cccs2)c2ccccc2n1C,-0.694
15,COc1ccc(-n2ccnc2SCC(=O)Nc2ccc(OC)cc2OC)cc1,8.97
16,CN1CCN(Cc2nc3ccccc3c(=O)n2Cc2nc(-c3ccc4ccccc4c3)cs2)CC1,2.57
17,CC(C(=O)NC1CCCc2ccccc21)N1CCN(c2ccc(F)cc2)CC1 (centres unmarked),4.73
18,O=C(N/N=C/c1ccc(OC(F)F)cc1)C1=COCCO1,6.52
19,CCC(C(=O)NCCc1ccc(C)cc1)n1nc(C)c2c(C)n(-c3ccccc3)nc2c1=O (centres unmarked),6.96
20,CN(C(=O)COc1ccc(Cl)cc1Br)C1CCCCC1,5.67
21,CC(OCC(O)CN1CCCCC1CCO)c1ccc(Cl)cc1 (centres unmarked),15.4
22,CC1CCN(S(=O)(=O)c2cccc(C(=O)NCC3CCCO3)c2)CC1 (centres unmarked),9.95
23,CN(Cc1ccccc1)C(=O)c1ccccc1NC(=O)c1ccccc1,-2.95

row,SMILES,"hERG current change (%, negative = inhibition) at 1uM [%]"
1,CCOC(=O)Cc1nnc(NCc2ccccc2)c2ccccc12,5.85
2,COc1ccnc(-n2cccc2C#N)c1C#N,2.41
3,CC(=O)CSc1ncnc2sc3c(c12)CCC(C)C3 (centres unmarked),3.45
4,Cc1cccc(C)c1OC(=O)C(c1ccccc1)c1ccccc1,8.3
5,CCN1C(=O)c2cccc3c(S(=O)(=O)Nc4ccccn4)ccc1c23,12.7
6,O=C(NC1CCCCC1)C(c1ccccc1)N1CCOCC1 (centres unmarked),8.98
7,CCCC(=O)N(c1ccc(F)cc1)C1C=CS(=O)(=O)C1 (centres unmarked),13.8
8,CN1C(=O)C(Cc2cnc[nH]2)NC1=S (centres unmarked),21.1
9,CCOC(=O)C(=CNc1ccc(C)cc1C)C(=O)OCC,15.7
10,C=C(C)COc1ccc(-c2[nH]ncc2Oc2ccc(OC)cc2)c(O)c1,-3.87
11,c1ccc2oc(-c3[nH]ncc3CN3CCC(N4CCSCC4)CC3)cc2c1,-32.6
12,Cc1cccc(OCC(=O)NN2C(=O)C3C4C=CC(O4)C3C2=O)c1 (centres unmarked),17.8
13,CN1CCCN(CC(O)COCc2cccs2)CC1 (centres unmarked),5.43
14,CN/C=C(/Cl)P(=O)(OC(C)C)OC(C)C,11
15,C=CCOc1ccc(/C=N/NC(=O)C(=O)N2CCCCCC2)cc1OC,9.96
16,O=[N+]([O-])c1ccc(N/N=C2\CC3CC=CC23)cc1 (centres unmarked),6.62
17,Cc1ccc(C)c(S(=O)(=O)NNC(=O)c2sc(NS(=O)(=O)c3ccccc3)nc2C)c1,18.5
18,COc1ccc(CCN2CC(C(=O)NCCc3cnn(C)c3)CCC2=O)cc1 (centres unmarked),13.4
19,COC(=O)c1cc(COC(=O)COc2ccc(C)c(C)c2)oc1C,16.9
20,CC(C)C(C)N(Cc1cccc(C(=O)O)c1)C(=O)c1ccc2ccccc2n1 (centres unmarked),15.5
